The labels stand for the following.
B1: RGCC, Q9H4X1 (protein)
chain: MKPPAAQGSPAAAAAAAPALDSAAAEDLSDALCEFDAVLADFASPFHERHFHYEEHLERMKRRSSASVSDSSGFSDSESADSLYRNSFSFSDEKLNSPTDSTPALLSATVTPQKAKLGDTKELEAFIADLDKTLASM
B2: TEAD3, Q99594 (protein)
chain: MASNSWNASSSPGEAREDGPEGLDKGLDNDAEGVWSPDIEQSFQEALAIYPPCGRRKIILSDEGKMYGRNELIARYIKLRTGKTRTRKQVSSHIQVLARKKVREYQVGIKAMNLDQVSKDKALQSMASMSSAQIVSASVLQNKFSPPSPLPQAVFSTSSRFWSSPPLLGQQPGPSQDIKPFAQPAYPIQPPLPPTLSSYEPLAPLPSAAASVPVWQDRTIASSRLRLLEYSAFMEVQRDPDTYSKHLFVHIGQTNPAFSDPPLEAVDVRQIYDKFPEKKGGLKELYEKGPPNAFFLVKFWADLNSTIQEGPGAFYGVSSQYSSADSMTISVSTKVCSFGKQVVEKVETEYARLENGRFVYRIHRSPMCEYMINFIHKLKHLPEKYMMNSVLENFTILQVVTSRDSQETLLVIAFVFEVSTSEHGAQHHVYKLVKD
B3: CREM, Q03060 (protein)
chain: MTMETVESQHDGSITASLTESKSAHVQTQTGQNSIPALAQVSVAGSGTRRGSPAVTLVQLPSGQTIHVQGVIQTPQPWVIQSSEIHTVQVAAIAETDESAESEGVIDSHKRREILSRRPSYRKILNELSSDVPGVPKIEEERSEEEGTPPSIATMAVPTSIYQTSTGQYIAIAQGGTIQISNPGSDGVQGLQALTMTNSGAPPPGATIVQYAAQSADGTQQFFVPGSQVVVQDEETELAPSHMAAATGDMPTYQIRAPTAALPQGVVMAASPGSLHSPQQLAEEATRKRELRLMKNREAAKECRRRKKEYVKCLESRVAVLEVQNKKLIEELETLKDICSPKTDY
B4: TAF2, Q6P1X5 (protein)
chain: MPLTGVEPARMNRKKGDKGFESPRPYKLTHQVVCINNINFQRKSVVGFVELTIFPTVANLNRIKLNSKQCRIYRVRINDLEAAFIYNDPTLEVCHSESKQRNLNYFSNAYAAAVSAVDPDAGNGELCIKVPSELWKHVDELKVLKIHINFSLDQPKGGLHFVVPSVEGSMAERGAHVFSCGYQNSTRFWFPCVDSYSELCTWKLEFTVDAAMVAVSNGDLVETVYTHDMRKKTFHYMLTIPTAASNISLAIGPFEILVDPYMHEVTHFCLPQLLPLLKHTTSYLHEVFEFYEEILTCRYPYSCFKTVFIDEAYVEVAAYASMSIFSTNLLHSAMIIDETPLTRRCLAQSLAQQFFGCFISRMSWSDEWVLKGISGYIYGLWMKKTFGVNEYRHWIKEELDKIVAYELKTGGVLLHPIFGGGKEKDNPASHLHFSIKHPHTLSWEYYSMFQCKAHLVMRLIENRISMEFMLQVFNKLLSLASTASSQKFQSHMWSQMLVSTSGFLKSISNVSGKDIQPLIKQWVDQSGVVKFYGSFAFNRKRNVLELEIKQDYTSPGTQKYVGPLKVTVQELDGSFNHTLQIEENSLKHDIPCHSKSRRNKKKKIPLMNGEEVDMDLSAMDADSPLLWIRIDPDMSVLRKVEFEQADFMWQYQLRYERDVVAQQESILALEKFPTPASRLALTDILEQEQCFYRVRMSACFCLAKIANSMVSTWTGPPAMKSLFTRMFCCKSCPNIVKTNNFMSFQSYFLQKTMPVAMALLRDVHNLCPKEVLTFILDLIKYNDNRKNKFSDNYYRAEMIDALANSVTPAVSVNNEVRTLDNLNPDVRLILEEITRFLNMEKLLPSYRHTITVSCLRAIRVLQKNGHVPSDPALFKSYAEYGHFVDIRIAALEAVVDYTKVDRSYEELQWLLNMIQNDPVPYVRHKILNMLTKNPPFTKNMESPLCNEALVDQLWKLMNSGTSHDWRLRCGAVDLYFTLFGLSRPSCLPLPELGLVLNLKEKKAVLNPTIIPESVAGNQEAANNPSSHPQLVGFQNPFSSSQDEEEIDMDTVHDSQAFISHHLNMLERPSTPGLSKYRPASSRSALIPQHSAGCDSTPTTKPQWSLELARKGTGKEQAPLEMSMHPAASAPLSVFTKESTASKHSDHHHHHHHEHKKKKKKHKHKHKHKHKHDSKEKDKEPFTFSSPASGRSIRSPSLSD
B5: PRKCQ, Q04759 (protein)
chain: MSPFLRIGLSNFDCGSCQSCQGEAVNPYCAVLVKEYVESENGQMYIQKKPTMYPPWDSTFDAHINKGRVMQIIVKGKNVDLISETTVELYSLAERCRKNNGKTEIWLELKPQGRMLMNARYFLEMSDTKDMNEFETEGFFALHQRRGAIKQAKVHHVKCHEFTATFFPQPTFCSVCHEFVWGLNKQGYQCRQCNAAIHKKCIDKVIAKCTGSAINSRETMFHKERFKIDMPHRFKVYNYKSPTFCEHCGTLLWGLARQGLKCDACGMNVHHRCQTKVANLCGINQKLMAEALAMIESTQQARCLRDTEQIFREGPVEIGLPCSIKNEARPPCLPTPGKREPQGISWESPLDEVDKMCHLPEPELNKERPSLQIKLKIEDFILHKMLGKGSFGKVFLAEFKKTNQFFAIKALKKDVVLMDDDVECTMVEKRVLSLAWEHPFLTHMFCTFQTKENLFFVMEYLNGGDLMYHIQSCHKFDLSRATFYAAEIILGLQFLHSKGIVYRDLKLDNILLDKDGHIKIADFGMCKENMLGDAKTNTFCGTPDYIAPEILLGQKYNHSVDWWSFGVLLYEMLIGQSPFHGQDEEELFHSIRMDNPFYPRWLEKEAKDLLVKLFVREPEKRLGVRGDIRQHPLFREINWEELERKEIDPPFRPKVKSPFDCSNFDKEFLNEKPRLSFADRALINSMDQNMFRNFSFMNPGMERLIS
B6: POU2F2, P09086 (protein)
chain: MVHSSMGAPEIRMSKPLEAEKQGLDSPSEHTDTERNGPDTNHQNPQNKTSPFSVSPTGPSTKIKAEDPSGDSAPAAPLPPQPAQPHLPQAQLMLTGSQLAGDIQQLLQLQQLVLVPGHHLQPPAQFLLPQAQQSQPGLLPTPNLFQLPQQTQGALLTSQPRAGLPTQAVTRPTLPDPHLSHPQPPKCLEPPSHPEEPSDLEELEQFARTFKQRRIKLGFTQGDVGLAMGKLYGNDFSQTTISRFEALNLSFKNMCKLKPLLEKWLNDAETMSVDSSLPSPNQLSSPSLGFDGLPGRRRKKRTSIETNVRFALEKSFLANQKPTSEEILLIAEQLHMEKEVIRVWFCNRRQKEKRINPCSAAPMLPSPGKPASYSPHMVTPQGGAGTLPLSQASSSLSTTVTTLSSAVGTLHPSRTAGGGGGGGGAAPPLNSIPSVTPPPPATTNSTNPSPQGSHSAIGLSGLNPSTGPGLWWNPAPYQP
B7: CTCFL, Q8NI51 (protein)
chain: MAATEISVLSEQFTKIKELELMPEKGLKEEEKDGVCREKDHRSPSELEAERTSGAFQDSVLEEEVELVLAPSEESEKYILTLQTVHFTSEAVELQDMSLLSIQQQEGVQVVVQQPGPGLLWLEEGPRQSLQQCVAISIQQELYSPQEMEVLQFHALEENVMVASEDSKLAVSLAETTGLIKLEEEQEKNQLLAERTKEQLFFVETMSGDERSDEIVLTVSNSNVEEQEDQPTAGQADAEKAKSTKNQRKTKGAKGTFHCDVCMFTSSRMSSFNRHMKTHTSEKPHLCHLCLKTFRTVTLLRNHVNTHTGTRPYKCNDCNMAFVTSGELVRHRRYKHTHEKPFKCSMCKYASVEASKLKRHVRSHTGERPFQCCQCSYASRDTYKLKRHMRTHSGEKPYECHICHTRFTQSGTMKIHILQKHGENVPKYQCPHCATIIARKSDLRVHMRNLHAYSAAELKCRYCSAVFHERYALIQHQKTHKNEKRFKCKHCSYACKQERHMTAHIRTHTGEKPFTCLSCNKCFRQKQLLNAHFRKYHDANFIPTVYKCSKCGKGFSRWINLHRHSEKCGSGEAKSAASGKGRRTRKRKQTILKEATKGQKEAAKGWKEAANGDEAAAEEASTTKGEQFPGEMFPVACRETTARVKEEVDEGVTCEMLLNTMDK
B8: DMRT3, Q9NQL9 (protein)
chain: MNGYGSPYLYMGGPVSQPPRAPLQRTPKCARCRNHGVLSWLKGHKRYCRFKDCTCEKCILIIERQRVMAAQVALRRQQANESLESLIPDSLRALPGPPPPGDAVAAPQPPPASQPSQPQPPRPAAELAAAAALRWTAEPQPGALQAQLAKPDLTEERLGDGKSADNTEVFSDKDTDQRSSPDVAKSKGCFTPESPEIVSVEEGGYAVQKNGGNPESRPDSPKCHAEQNHLLIEGPSGTVSLPFSLKANRPPLEVLKKIFPNQKPTVLELILKGCGGDLVSAVEVLLSSRSSVTGAERTSAEPESLALPSNGHIFEHTLSSYPISSSKWSVGSAFRVPDTLRFSADSSNVVPSPLAGPLQPPFPQPPRYPLMLRNTLARSQSSPFLPNDVTLWNTMTLQQQYQLRSQYVSPFPSNSTSVFRSSPVLPARATEDPRISIPDDGCPFVSKQSIYTEDDYDERSDSSDSRTLNTSS
B9: NEUROD1, Q13562 (protein)
chain: MTKSYSESGLMGEPQPQGPPSWTDECLSSQDEEHEADKKEDDLETMNAEEDSLRNGGEEEDEDEDLEEEEEEEEEDDDQKPKRRGPKKKKMTKARLERFKLRRMKANARERNRMHGLNAALDNLRKVVPCYSKTQKLSKIETLRLAKNYIWALSEILRSGKSPDLVSFVQTLCKGLSQPTTNLVAGCLQLNPRTFLPEQNQDMPPHLPTASASFPVHPYSYQSPGLPSPPYGTMDSSHVFHVKPPPHAYSAALEPFFESPLTDCTSPSFDGPLSPPLSINGNFSFKHEPSAEFEKNYAFTMHYPAATLAGAQSHGSIFSGTAAPRCEIPIDNIMSFDSHSHHERVMSAQLNAIFHD

This is one part of the list. Binding of human transcription factors and regulators to the viral nucleoprotein by AlphaScreen, crude cell-free proteins, amounts not normalised, one pass. Fold of the Venus control; higher = more signal. No active / inactive call. Single-pass screen; sequences are the whole Swiss-Prot entries looked up by name.

The target in the experiment is nucleoprotein N of Crimean-Congo hemorrhagic fever virus. Kind of experiment: AlphaScreen luminescence signal relative to Venus negative control (fold); higher = stronger binding to CCHFV N. On the procedure: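 AlphaScreen binding of cell-free made, FLAG-GST-tagged human transcription factors and regulators (crude translation products) to biotinylated N protein; signal as fold of the FLAG-GST-Venus control. One pass.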
As for B1, the AlphaScreen luminescence signal came to 1.02.

Molecule B2 had an AlphaScreen luminescence signal of 3.07. Molecule B3 returned an AlphaScreen luminescence signal of 1.77. Then B4, with 2.56; and B5, with 2.05; and B6, with 2.56. In turn, B7 came in with an AlphaScreen luminescence signal of 2.74. In turn, B8 displayed an AlphaScreen luminescence signal of 2.6. Then B9, with 3.07.
